Laboratory results taken from the supplement of paper PMC4967469.
A lower IC50 marks a more sensitive line; a fit beyond the top or the lowest dose is shown as a bound at that dose. AUC is the area under the same curve over the 256-fold range up to the top dose, as a fraction; it is 1 without any effect and falls as sensitivity rises. Where the top dose is marked as inferred, it comes from the curve model; the source does not state it.

Experiments:
FR-180204 = compound: Nc1[nH]nc2nnc(-c3c(-c4ccccc4)nn4ccccc34)cc12 [FR-180204]; assay: Viability of human cancer cell lines after 72 h of drug (GDSC screen); conditions: top dose 20 µM; top dose inferred
Method: (§1)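 Human cancer cell lines in 384-well plates, medium with 10% serum, drug for 72 h over a 256-fold dose range (nine 2-fold or five 4-fold steps up to the top dose). Adherent lines were fixed and stained with the nucleic acid dye Syto60, suspension lines read with resazurin; signal relative to control wells, capped at 0 and 100%. One two-parameter sigmoid per drug and line, fitted in a mixed model over all curves with the slope shared within a line.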

FK866 = compound: O=C(/C=C/c1cccnc1)NCCCCC1CCN(C(=O)c2ccccc2)CC1 [FK866]; assay: as above; conditions: top dose 1 µM; top dose inferred
Method: as §1

Cell Line	AUC (FR-180204)	IC50 (FR-180204)	AUC (FK866)	IC50 (FK866)
OE19 (oesophagus, adherent)	0.984	> 20000 nM	0.417	35.9 nM
OE21 (oesophagus, adherent)	0.941	> 20000 nM	0.538	82.3 nM
OE33 (oesophagus, adherent)	0.931	> 20000 nM	0.844	932 nM
OMC-1 (cervix, adherent)	0.988	> 20000 nM	0.884	> 1000 nM
ONS-76 (medulloblastoma, adherent)	0.981	> 20000 nM	0.103	< 3.91 nM
OPM-2 (myeloma, suspension)	0.977	> 20000 nM	0.479	55.5 nM
OS-RC-2 (kidney, adherent)	0.97	> 20000 nM	0.69	272 nM
OSC-19 (head and neck, adherent)	0.968	> 20000 nM	0.673	194 nM
OSC-20 (head and neck, adherent)	0.973	> 20000 nM	0.565	97.5 nM
OV-7 (ovary, adherent)	0.95	> 20000 nM	0.598	134 nM
OV-17R (ovary, adherent)	0.961	> 20000 nM	0.956	> 1000 nM
OV-56 (ovary, adherent)	0.989	> 20000 nM	0.717	249 nM
OV-90 (ovary, adherent)	0.972	> 20000 nM	0.673	219 nM
OVCA420 (ovary, adherent)	0.93	> 20000 nM	0.828	919 nM
OVCA433 (ovary, adherent)	0.957	> 20000 nM	0.948	> 1000 nM
OVCAR-3 (ovary, adherent)	0.985	> 20000 nM	0.396	31.4 nM
OVCAR-4 (ovary, adherent)	0.943	> 20000 nM	0.615	151 nM
OVCAR-5 (ovary, adherent)	0.929	> 20000 nM	0.131	< 3.91 nM
OVCAR-8 (ovary, adherent)	0.959	> 20000 nM	0.065	< 3.91 nM
OVISE (ovary, adherent)	0.944	> 20000 nM	0.741	392 nM
OVK-18 (ovary, adherent)	0.975	> 20000 nM	0.144	4.14 nM
OVKATE (ovary, adherent)	0.923	> 20000 nM	0.951	> 1000 nM
OVMIU (ovary, adherent)	0.901	> 20000 nM	0.85	> 1000 nM
OVTOKO (ovary, adherent)	0.954	> 20000 nM	0.694	257 nM
P12-ICHIKAWA (T-cell lymphoblastic leukaemia, suspension)	0.994	> 20000 nM	0.017	< 3.91 nM

Cell Line	AUC (FR-180204)	IC50 (FR-180204)	AUC (FK866)	IC50 (FK866)
P30-OHK (lymphoblastic leukaemia, suspension)	0.948	> 20000 nM	0.018	< 3.91 nM
P31-FUJ (acute myeloid leukaemia, suspension)	0.995	> 20000 nM	0.174	9.21 nM
P32-ISH (Burkitt lymphoma, suspension)	0.995	> 20000 nM	0.021	< 3.91 nM
PA-TU-8902 (pancreas, adherent)	0.978	> 20000 nM	0.559	93.3 nM
PA-TU-8988T (pancreas, adherent)	0.975	> 20000 nM	0.109	< 3.91 nM
PANC-02-03 (pancreas, adherent)	0.909	> 20000 nM	0.535	79.2 nM
PANC-03-27 (pancreas, adherent)	0.955	> 20000 nM	0.756	321 nM
PANC-04-03 (pancreas, adherent)	0.959	> 20000 nM	0.853	> 1000 nM
PANC-08-13 (pancreas, adherent)	0.899	> 20000 nM	0.895	> 1000 nM
PANC-10-05 (pancreas, adherent)	0.957	> 20000 nM	0.836	951 nM
PC-3 (prostate, adherent)	0.954	> 20000 nM	0.362	23.7 nM
PC-3 [JPC-3] (lung adenocarcinoma, adherent)	0.843	> 20000 nM	0.839	> 1000 nM
PC-14 (lung adenocarcinoma, adherent)	0.927	> 20000 nM	0.496	61.1 nM
PCI-4B (head and neck, adherent)	0.983	> 20000 nM	0.151	5.65 nM
PCI-6A (head and neck, adherent)	0.953	> 20000 nM	0.881	> 1000 nM
PCI-15A (head and neck, adherent)	0.987	> 20000 nM	0.495	60.4 nM
PCI-30 (head and neck, adherent)	0.974	> 20000 nM	0.733	342 nM
PCI-38 (head and neck, adherent)	0.986	> 20000 nM	0.353	24.4 nM
PE/CA-PJ15 (head and neck, adherent)	0.98	> 20000 nM	0.375	27.5 nM
PEO1 (ovary, adherent)	0.986	> 20000 nM	0.985	> 1000 nM
PF-382 (T-cell lymphoblastic leukaemia, suspension)	0.985	> 20000 nM	0.035	< 3.91 nM
PL4 (pancreas, adherent)	0.97	> 20000 nM	0.337	21.6 nM
PL18 (pancreas, adherent)	0.981	> 20000 nM	0.791	445 nM
PL-21 (acute myeloid leukaemia, suspension)	0.883	> 20000 nM	0.221	8.11 nM
PSN1 (pancreas, adherent)	0.921	> 20000 nM	0.164	7.52 nM

Cell Line	AUC (FR-180204)	IC50 (FR-180204)	AUC (FK866)	IC50 (FK866)
QGP-1 (pancreas, adherent)	0.918	> 20000 nM	0.473	50.6 nM
QIMR-WIL (acute myeloid leukaemia, suspension)	0.964	> 20000 nM	0.117	< 3.91 nM
RC-K8 (B-cell lymphoma, suspension)	0.993	> 20000 nM	0.327	22.1 nM
RCC-AB (kidney, adherent)	0.913	> 20000 nM	0.894	> 1000 nM
RCC-ER (kidney, adherent)	0.985	> 20000 nM	0.934	> 1000 nM
RCC-FG2 (kidney, adherent)	0.955	> 20000 nM	0.91	> 1000 nM
RCC-JF (kidney, adherent)	0.95	> 20000 nM	0.423	37.3 nM
RCC-JW (kidney, adherent)	0.96	> 20000 nM	0.17	6 nM
RCC-MF (kidney, adherent)	0.881	> 20000 nM	0.586	115 nM
RCM-1 (large intestine, adherent)	0.982	> 20000 nM	0.888	> 1000 nM
RD (rhabdomyosarcoma, adherent)	0.976	> 20000 nM	0.212	8.07 nM
REH (B-cell leukaemia, suspension)	0.958	> 20000 nM	0.036	< 3.91 nM
RERF-GC-1B (stomach, adherent)	0.904	> 20000 nM	0.976	> 1000 nM
RERF-LC-KJ (lung adenocarcinoma, adherent)	0.983	> 20000 nM	0.974	> 1000 nM
RERF-LC-MS (lung adenocarcinoma, adherent)	0.945	> 20000 nM	0.316	18.8 nM
RERF-LC-Sq1 (lung squamous cell carcinoma, adherent)	0.955	> 20000 nM	0.884	> 1000 nM
RF-48 (stomach, adherent)	0.897	> 20000 nM	0.256	11.3 nM
RH-1 (rhabdomyosarcoma, adherent)	0.936	> 20000 nM	0.076	< 3.91 nM
RH-41 (rhabdomyosarcoma, adherent)	0.991	> 20000 nM	0.042	< 3.91 nM
RKN (ovary, adherent)	0.944	> 20000 nM	0.984	> 1000 nM
RKO (large intestine, adherent)	0.982	> 20000 nM	0.987	> 1000 nM
RL95-2 (endometrium, adherent)	0.987	> 20000 nM	0.075	< 3.91 nM
RL (B-cell lymphoma, suspension)	0.974	> 20000 nM	0.927	> 1000 nM
RMG-I (ovary, adherent)	0.929	> 20000 nM	0.678	215 nM
RO82-W-1 (thyroid, adherent)	0.983	> 20000 nM	0.869	> 1000 nM

Cell Line	AUC (FR-180204)	IC50 (FR-180204)	AUC (FK866)	IC50 (FK866)
ROS-50 (B-cell leukaemia, suspension)	0.979	> 20000 nM	0.245	9.19 nM
RPMI-2650 (head and neck, adherent)	0.971	> 20000 nM	0.276	13.6 nM
RPMI-6666 (Hodgkin lymphoma, suspension)	0.944	> 20000 nM	0.303	15.5 nM
RPMI-8402 (T-cell lymphoblastic leukaemia, suspension)	0.973	> 20000 nM	0.985	> 1000 nM
RPMI-8866 (chronic myeloid leukaemia, suspension)	0.965	> 20000 nM	0.037	< 3.91 nM
RS4-11 (leukaemia, suspension)	0.949	> 20000 nM	0.026	< 3.91 nM
RT4 (bladder, adherent)	0.957	> 20000 nM	0.986	> 1000 nM
RT-112 (bladder, adherent)	0.957	> 20000 nM	0.351	23.3 nM
RVH-421 (melanoma, adherent)	0.849	> 20000 nM	0.728	361 nM
RXF393 (kidney, adherent)	0.969	> 20000 nM	0.965	> 1000 nM
Raji (Burkitt lymphoma, suspension)	0.99	> 20000 nM	0.1	< 3.91 nM
Ramos-2G6-4C10 (Burkitt lymphoma, suspension)	0.984	> 20000 nM	0.05	< 3.91 nM
SAS (head and neck, adherent)	0.921	> 20000 nM	0.376	27.3 nM
SBC-1 (small cell lung carcinoma, suspension)	0.989	> 20000 nM	0.197	8.22 nM
SBC-3 (small cell lung carcinoma, adherent)	0.975	> 20000 nM	0.024	< 3.91 nM
SBC-5 (small cell lung carcinoma, adherent)	0.993	> 20000 nM	0.234	12.8 nM
SCC-4 (head and neck, adherent)	0.974	> 20000 nM	0.852	> 1000 nM
SCC-9 (head and neck, adherent)	0.939	> 20000 nM	0.954	> 1000 nM
SCC-15 (head and neck, adherent)	0.977	> 20000 nM	0.689	256 nM
SCC-25 (head and neck, adherent)	0.965	> 20000 nM	0.917	> 1000 nM
SCH (stomach, adherent)	0.988	> 20000 nM	0.35	23.2 nM
SF126 (glioma, adherent)	0.982	> 20000 nM	0.088	< 3.91 nM
SF268 (glioma, adherent)	0.972	> 20000 nM	0.151	4.66 nM
